# According to the supplement of paper PMC5499739:
# The full ranking holds about 16,000 sequences; the median of “Z-score” is about -0.37, and the highest 2% start at about 3.1. This is one part of the list.
# Tested on: RBM10 RRM1-ZnF-RRM2 (GST-tagged construct)
# Assay: RNAcompete 7-mer binding Z-score; higher = stronger binding preference
# Protocol: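 RNAcompete: 20 pmol GST-tagged RBM10 RNA-binding constructs were incubated with a designed RNA pool of about 241,000 sequences up to 41 nt (1.5 nmol) on glutathione beads for 30 min at 4 °C and washed. Bound RNAs were identified by microarray hybridisation. Each RNA 7-mer is scored by a one-sided Z-score of its enrichment, computed over probes that contain the 7-mer within longer pool sequences.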
row,Sequence,RNAcompete 7-mer binding Z-score
1,UAGUCUG,-0.457
2,AUAAGUG,0.355
3,GUAAAAG,0.767
4,CCCACGC,-0.53
5,CAACUGU,-0.741
6,UAGGGAU,2.48
7,CACUGAG,-0.209
8,ACCAUUA,-0.573
9,AACGCGU,0.0714
10,CCGGGUA,0.814
11,GCUCGGC,-0.329
12,UCGAUUG,-0.581
13,UAACGAA,-0.249
14,GAGAGAC,0.166
15,UACAUCG,-0.395
16,CCAUAAC,-0.712
17,GGAGUUC,0.286
18,GAUAAUA,0.206
19,CAGCAGA,0.494
20,GGGUAAU,2.99
21,UGCCCGA,-0.602
22,UGCGCAG,0.0677
23,AGUCUCA,-0.584
24,AAAUAGC,-0.278

row,Sequence,RNAcompete 7-mer binding Z-score
1,GACGAGU,0.468
2,CGGCCUA,-0.77
3,AUGCGGC,0.217
4,GACGAUU,-0.366
5,CAGAGAA,0.108
6,GCCCUCA,-0.945
7,GCCGUAG,-0.00148
8,GGCACCU,-0.264
9,UCGGCUC,-0.701
10,GGUGUGC,1.85
11,UUGUUUA,-0.661
12,CGGUUAA,0.33
13,ACCCUUU,-1.01
14,CGGUAUA,0.312
15,UACUCUC,-0.734
16,GACUAUC,-0.846
17,CCGCGAC,-0.723
18,CUCUCCC,-0.635
19,AGAAGGA,4.29
20,UGACAAA,-0.395
21,GGCGGAC,1.38
22,GUGAGCU,0.406
23,AUGCCAU,-0.785
24,GAUUCGA,-0.173

row,Sequence,RNAcompete 7-mer binding Z-score
1,CGAUGUU,-0.657
2,CUCAAUC,-0.806
3,GGGUACC,1.58
4,ACCCAAC,-0.792
5,AUCAGCC,-0.839
6,CAGCUAU,-0.635
7,UAACGCG,-0.333
8,GGGCAGG,3.39
9,CUCGCCG,-0.785
10,UUAACAA,-0.278
11,CAAGUCA,-0.369
12,AGCUGUA,-0.559
13,AUUCAGC,-0.679
14,CUCAAAC,-0.806
15,ACAUGCC,-0.941
16,AUAUGUA,-0.144
17,AUAGUCG,-0.00148
18,GAGUCGA,0.68
19,UGCCGAA,-0.424
20,CAGUGAG,1.5
21,AUCCUUC,-0.734
22,GCCACCU,-0.777
23,GGAAUCG,1.15
24,GAUCUUG,-0.675

row,Sequence,RNAcompete 7-mer binding Z-score
1,GCCUAGG,0.0422
2,CAGUGCU,-0.216
3,CAACUAG,-0.355
4,GCAAGGC,0.541
5,AGGACGU,0.574
6,AGCAUAU,-0.435
7,UUCCUCG,-0.715
8,AGCUGGA,0.672
9,AUAUUUG,-0.449
10,AGAUGAU,0.177
11,AAUCGAC,-0.373
12,GCCAAAG,-0.0743
13,AACGUAA,-0.202
14,AAUGCUG,-0.0197
15,CGGCUAC,-0.577
16,UUUUUUG,-0.464
17,AUAAUCC,-0.73
18,GGGAAAC,2.51
19,UAAUCGG,0.115
20,AUGAGCA,0.497
21,UAUAGCG,0.0823
22,AGCUAUC,-0.679
23,UGUCGAC,-0.5
24,CUUUCAA,-0.792

row,Sequence,RNAcompete 7-mer binding Z-score
1,GUCGCAA,-0.351
2,GCAAUAG,0.84
3,CGAUCUA,-0.715
4,UUGUGCA,-0.449
5,CUAUUAG,-0.468
6,CGUCAUG,-0.355
7,CUAACUA,-0.599
8,AUCUUCA,-0.876
9,UUUUUGC,-0.795
10,CGUUCGC,-0.668
11,UGUGGAC,0.942
12,AGUUGCU,-0.486
13,CUAAUGC,-0.795
14,GUCUACG,-0.278
15,GUCGACU,-0.435
16,UGGUGCA,0.953
17,UAAACAA,-0.311
18,UCUCCCC,-0.701
19,UACAAGC,-0.38
20,ACAUUAC,-0.42
21,UUAACGC,-0.694
22,GAGUACC,0.0167
23,CCUUCGA,-1.05
24,GGGCGGU,2.58

row,Sequence,RNAcompete 7-mer binding Z-score
1,UCCGAGG,0.428
2,AGGGAUA,4.38
3,CGUGGAA,1.29
4,GCUUUAC,-0.719
5,CAAAGUU,-0.409
6,ACGUCAU,-0.581
7,CCGCAUU,-0.905
8,AGGUCUG,-0.256
9,UGCUGUC,-0.548
10,UGUUACG,-0.253
11,UAUACUU,-0.719
12,CCCAUGC,-0.785
13,UUCGUGC,-0.541
14,CUGUCGC,-0.781
15,AUGGCGG,2.49
16,GCUGUCC,-0.65
17,UUAACUG,-0.402
18,GGAUCAC,0.217
19,GAACCUG,-0.683
20,CGUGUUC,-0.781
21,CUACCCC,-0.639
22,GUUGGGC,2.33
23,CCCCCUG,-0.551
24,GAAGCUC,-0.562

row,Sequence,RNAcompete 7-mer binding Z-score
1,GACAGUA,-0.0488
2,GAACUAU,-0.482
3,CAUCUCG,-0.73
4,AUUUCAA,-0.559
5,GAAAUGU,0.297
6,GACCUUG,-0.887
7,UGGCUGU,-0.326
8,CUAAGCC,-0.967
9,UCUAGUU,-0.686
10,CUCCUAG,-0.646
11,CCCUUUG,-0.952
12,AAGCUUA,-0.544
13,AUGCUAA,-0.592
14,CAUACUU,-0.73
15,UCUUGGG,0.162
16,UUCGGGG,1.47
17,GAGUUAA,0.417
18,AGAAUGA,0.275
19,GCGCUAC,-0.0925
20,ACGACGA,-0.384
21,GGGAUGC,2.65
22,CCCCUCC,-0.362
23,CACUUGU,-0.825
24,GAACUUC,-0.668

row,Sequence,RNAcompete 7-mer binding Z-score
1,AAUAGCC,-0.562
2,AAUCCUC,-0.766
3,CCAGUGG,1.12
4,UGUGCAG,0.264
5,CUACAUG,-0.599
6,GUCUCGU,-0.413
7,CAGGUUA,1.16
8,UUGCAGU,-0.53
9,GAGAUAA,0.45
10,GCCCCGA,-0.584
11,CGAUAGC,-0.333
12,UUAAUGG,1.08
13,GGAACGU,1.27
14,CUACGUA,-0.406
15,AUUGUUA,-0.369
16,UUGCUAA,-0.541
17,CUGGCCG,-0.428
18,AUAUUGC,-0.566
19,GGGUUGG,4.05
20,CAUGGCG,0.785
21,CGAGUAC,-0.0415
22,AGGCCCG,-0.759
23,UUUGAGU,-0.213
24,CAUCAAC,-0.391

row,Sequence,RNAcompete 7-mer binding Z-score
1,AAUUAGC,-0.278
2,AGUCGGU,0.745
3,GUCGAGC,0.348
4,ACAACAA,-0.184
5,GGCAUGA,0.876
6,GGAAUGC,1.43
7,AACAAUU,-0.559
8,UGACGAG,0.345
9,UCCCCCG,-0.5
10,AAAGCCU,-0.734
11,GGACCGA,0.297
12,GAAUACC,-0.304
13,GUAGCCU,-0.635
14,CCGAAUA,-0.613
15,UUAUUUG,-0.763
16,UCCGAAG,-0.34
17,GAUUUCC,-0.657
18,UUUUUCG,-0.61
19,UGGGUAC,2.59
20,GCAGACU,-0.395
21,GCUGGAA,0.472
22,UACUGGC,-0.73
23,GUCCGUA,-0.471
24,GGAACUU,0.0058

row,Sequence,RNAcompete 7-mer binding Z-score
1,AAUGCGU,-0.0161
2,UAUGAGG,1.54
3,GGAUGCC,0.552
4,AGAACCG,-0.661
5,UAGGUUA,1.01
6,AAGUGCU,-0.358
7,UGGAGUU,1.53
8,UACGUCA,-0.271
9,GAAUUUA,-0.34
10,AUUACAG,0.21
11,ACUCACA,-0.686
12,CGUGACC,-0.595
13,UGAUUGG,1.29
14,GGGCACU,0.782
15,CGGCAGU,0.141
16,UGAAGUG,1.12
17,GUAUUCU,-0.657
18,UUACGCC,-0.715
